Laboratory results as given in PubChem BioAssay AID1159614 (National Center for Advancing Translational Sciences (NCATS), 2016).
Out of some 45,000 compounds screened, about 65 (0.1%) were called active. The call rests on the fitted dose curve; in most records, active means well fitted activation curve with a large enough effect; inconclusive means small, poorly fitted or top-dose-only effect; inactive means no such curve, though single readings can be large or run the other way. The list shows a part of the results.

molecular target: Galactocerebrosidase (Homo sapiens) (UniProt P54803); assay: A Novel Cell-Based Assay to Identify Small Molecules for B -Galactocerebrosidase; settings: 145M-Twi-hGALC-G270D cells, HMU-beta-Gal fluorescence, 48 h; series mostly up to 57.5 µM; activation: at the top concentration; further: 0% is about no effect; nearly all actives have a fitted effect of over 65% in size
How it was run: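 qHTS, 1536-well; 145M-Twi-hGALC-G270D cells (WT line also made) in DMEM/F12 + 10% FBS; compound incubation on live cells; HMU-β-gal 0.1 mM final, pH 5.2, NaTC; carbonate stop; fluorescence increase = enhanced residual activity.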

Chain of UniProt P54803 (P54803 whole entry, looked up): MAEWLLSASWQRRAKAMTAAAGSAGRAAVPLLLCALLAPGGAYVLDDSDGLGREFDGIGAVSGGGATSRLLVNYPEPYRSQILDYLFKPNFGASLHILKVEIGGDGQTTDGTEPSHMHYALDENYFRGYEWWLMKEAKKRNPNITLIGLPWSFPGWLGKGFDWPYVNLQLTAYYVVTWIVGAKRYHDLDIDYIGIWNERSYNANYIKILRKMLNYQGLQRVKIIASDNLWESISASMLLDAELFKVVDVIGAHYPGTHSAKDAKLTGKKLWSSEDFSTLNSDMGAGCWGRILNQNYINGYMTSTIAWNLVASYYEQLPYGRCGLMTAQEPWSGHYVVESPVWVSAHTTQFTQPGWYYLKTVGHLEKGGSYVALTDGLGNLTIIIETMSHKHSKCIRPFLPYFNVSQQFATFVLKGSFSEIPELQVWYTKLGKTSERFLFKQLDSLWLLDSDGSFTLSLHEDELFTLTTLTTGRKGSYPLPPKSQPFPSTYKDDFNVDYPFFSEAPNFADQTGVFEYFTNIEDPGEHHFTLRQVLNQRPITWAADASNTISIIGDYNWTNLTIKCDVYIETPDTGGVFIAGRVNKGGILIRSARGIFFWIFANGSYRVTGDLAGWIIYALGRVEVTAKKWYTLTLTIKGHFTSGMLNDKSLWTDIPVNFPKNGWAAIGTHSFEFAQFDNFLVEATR

activation, inactive:
CCc1ccccc1N(C)C(=O)Nc1cn(CC(C)C)c(=O)c2ccccc12 -26.6%, COCCNC(=O)CN1C(=O)COc2ccc(S(=O)(=O)N3CCOCC3)cc21 -7.28%, O=C(CSc1nc(=O)n(Cc2ccco2)c2c1CCC2)NCc1ccccc1Cl -8.4%, CCOc1ccc(N2CC(NC(=O)c3ccc(S(=O)(=O)N4CCOCC4)cc3)CC2=O)cc1 (stereo unspecified) -2.51%, Cc1cc(N2CCN(C)CC2)nc2ccc(NC(=O)Nc3ccc(Cl)cc3)cc12 -14.4%, COC(=O)c1scc(-c2ccc(C)cc2)c1S(=O)(=O)Nc1ccc(OC(F)(F)F)cc1 -6.65%, N#Cc1ccc(NC(=O)COCc2cc(-c3ccc4c(c3)OCO4)on2)cc1 -17.7%, CCOc1ccc(CNC(=O)CCn2c(=O)c3cccn3c3cccnc32)cc1 6.2%, COc1ccc(C)cc1NC(=O)Cn1nc(N2CCN(c3ccccc3OC)CC2)ccc1=O -1.56%, COc1ccccc1Cc1nc2ccccc2nc1SCC(=O)NCc1ccc(C)cc1 -5.75%, O=C(COCc1cc(-c2ccco2)on1)Nc1cc(Cl)ccc1O -12%, COc1ccc(-c2nc(SCC(=O)NC3CCCC3)c(-c3ccc(F)cc3)[nH]2)cc1OC -20.6%, COc1ccccc1CNC(=O)C(=O)NCC(c1cccnc1)N1CCN(c2ccccc2)CC1 (stereo unspecified) -10.4%, Cc1noc(C)c1S(=O)(=O)N(CC(=O)NCc1ccccc1)c1ccc(C(C)C)cc1 -2.62%, COc1ccc(CC(=O)N2CCc3c([nH]c4ccccc34)C2c2ccc(SC)cc2)cc1 (stereo unspecified) -2.27%, CC1CCN(C(c2ccc(F)cc2)c2sc3nc(-c4ccco4)nn3c2O)CC1 (stereo unspecified) -0.671%, COCCNC(=O)CCn1nc(-c2ccc(Cl)cc2)c2ccccc2c1=O -8.89%, CC(=O)N1CCCc2cc(S(=O)(=O)Nc3ccc(Cl)cc3F)ccc21 -10.4%, CC(=C(CCOC(=O)C(C)C)SSC(CCOC(=O)C(C)C)=C(C)N(C=O)Cc1cnc(C)nc1N)N(C=O)Cc1cnc(C)nc1N -9.87%, O=C(Nc1ccc2oc(-c3cccnc3)nc2c1)c1ccccc1F -41.4%, O=C(c1ccc2c(c1)N(Cc1ccccc1)C(=O)c1ccccc1S2(=O)=O)N1CCOCC1 -1.56%, CCc1ccc(-n2c(N3CCN(c4ccc(F)cc4)CC3)nc3ccccc3c2=O)cc1 0.379%, COc1ccc(NC(=O)C(NC(=O)/C=C\c2ccc3c(c2)OCO3)c2ccc(C)cc2)cc1 (stereo unspecified) -29.5%, COc1ccc(C(=O)N2CCN(C(=O)COc3ccccc3)CC2)cc1OC -14.2%, Cc1cc(S(=O)(=O)Nc2cc3c(cc2N2CCOCC2)n(C)c(=O)c(=O)n3C)ccc1F -1.83%, COc1ccc(-c2nc3n(n2)C(c2ccc(O)cc2)C(C(=O)Nc2cccnc2)=C(C)N3)cc1OC (stereo unspecified) -9.28%, O=C(Nc1cccc(Br)c1)c1cc(S(=O)(=O)N2CCCCC2)c[nH]1 -6.28%, CC/C(=C(\c1ccccc1)c1ccc(OCCN(C)C)cc1)c1ccccc1 -15.8%, COc1ccc(C(=O)Nc2nc(-c3ccc(Br)cc3)ns2)cc1 -12.9%, Cc1csc2nc(COc3ccc(NC(=O)c4ccccc4F)cc3)cc(=O)n12 12.2%, CCCNC(=O)c1ccc(Cn2c(SCC(=O)NC(C)C)nc3ccccc3c2=O)cc1 11.7%, CCOCCc1nn2c(=O)cc(COC(=O)c3ccc(NC(=O)c4cccs4)cc3)nc2s1 9.47%, Cc1cccc(C(=O)N2CCc3cc(CNC(=O)c4ccco4)ccc32)c1 -17.4%, CCOc1ccc(CCNC(=O)NCc2noc3ccc(C)cc23)cc1 -18.7%, CCc1oc2ccccc2c1C(=O)c1cc(Br)c(O)c(Br)c1 -9.74%, COC(=O)CN1C(=O)C(O)(c2c(C)[nH]c3ccccc23)c2ccccc21 (stereo unspecified) -17.1%, CCCn1c2ccccc2c2cnn(CC(=O)NCC3CCN(Cc4ccccc4C)CC3)c(=O)c21 1.71%, COc1ccccc1CNc1nccn(-c2ccc(F)cc2)c1=O -0.161%, Cc1ccc(-n2ncc3c(Nc4ccc5c(c4)OCCO5)ncnc32)cc1Cl -16.4%, Cc1ccc(C(=O)c2oc3ccccc3c2NC(=O)c2cc(-c3ccccc3)on2)cc1 -0.437%, CCOCCCN1C(=O)CN(C2CCCCCC2)C(=O)C1c1ccc(OCC)c(OC)c1 (stereo unspecified) -12%, COc1ccc(S(=O)(=O)NCCc2sc(-c3cccnc3)nc2C)cc1 -18.6%, COc1ccc(NC(=O)Cn2c(=O)c3cccn3c3ccccc32)cc1 -10.4%, O=C(NC1CC(=O)N(c2ccc(F)cc2)C1)c1ccc(S(=O)(=O)N2CCOCC2)cc1 (stereo unspecified) -11.7%, COc1ccc(NC(=O)c2cccc3c(=O)c4c([nH]c23)CCCC4)cc1 -16%, O=C(O)CCC(=O)N1CCc2cc(S(=O)(=O)NCc3ccc(F)cc3)ccc21 -7.83%, O=C1OC2(c3ccccc31)c1cc(Br)c(O)c(Br)c1Oc1c2cc(Br)c(O)c1Br -15.7%, CCCC1=Nc2cc(C(=O)NCc3ccccc3)ccc2Sc2ccccc21 -14.1%, Cc1ccc(C(C)C)c(OCC(=O)Nc2ccc3c(c2)nc(CCNC(=O)c2ccco2)n3C)c1 -9.16%, CCCCN(C)S(=O)(=O)c1ccc(C(=O)Nc2sc3c(c2C(=O)OCC)CCN(C(C)C)C3)cc1 -26.3%, CCSc1nc(-c2ccccc2)nc2c1Cc1c(CO)cnc(C)c1O2 -8.28%, CCOC(=O)C1CCN(C(=O)C2CCN(S(=O)(=O)c3c(C)noc3/C=C/c3ccc(C)cc3)CC2)CC1 -1.31%, COc1cc(OC)cc(C(=O)Nc2ccc3c(c2)CCCN3C(=O)c2cccs2)c1 -3.28%, CCOC(=O)c1[nH]c(C)c(CCC(=O)N2CCN(c3ccc(OC)cc3)CC2)c1C -16.7%, O=C(Nc1cc(F)ccc1F)C1CCN(C(=O)c2cnn(-c3ccccc3)c2-n2cccc2)CC1 -11.2%, Cc1ccc(NC(=O)CSc2nncn2C)c(C)c1 -12.1%, CCOC(=O)c1cc(NC(=O)c2ccccc2)c(=O)n2c1oc1ccc(Cl)cc12 -4.73%, CCOc1ccccc1CNS(=O)(=O)c1ccc(-c2cnc(C3CC3)o2)cc1 -35.4%, Cc1ccc(-n2nc(CO)c(C(=O)NCc3cccnc3)n2)cc1C 8.97%, COc1ccc(S(=O)(=O)c2cn(C)c3cc(N4CCCCCC4)c(F)cc3c2=O)cc1 -15.2%, COc1ccc(NC(=O)CSC2=Nc3ccccc3C3=NC(CCC(=O)NC4CCCCC4)C(=O)N23)cc1Cl (stereo unspecified) -18.5%, COc1ccc(-c2noc(-c3nnn(-c4ccc(C)cc4C)c3C)n2)cc1 -14.4%, COc1ccccc1NC(=O)CSCc1cc(=O)c2cccc(Cl)c2[nH]1 -6.22%, COc1ccc(OC)c(C2CC(=O)Nc3c2c(=O)n(C)c2ncnn32)c1 (stereo unspecified) -4.86%, COc1ccc(Cl)c2sc(NC(=O)c3ccc(S(=O)(=O)N4CCCC4)cc3)nc12 -19.5%, CCc1ccc2occ(CC(=O)Nc3c(C(=O)c4ccccc4)oc4ccccc34)c2c1 -19.7%, CCOC(=O)c1c(-c2ccccc2)oc2ccc(NS(=O)(=O)c3ccc(C)cc3)cc12 -1.79%, CCN1C(=O)c2ccccc2Sc2ccc(NC(=O)Nc3cc(C)cc(C)c3)cc21 -11.7%, O=C(CSC1=Nc2ccccc2C2=NC(Cc3ccccc3)C(=O)N12)Nc1cccc(Cl)c1 (stereo unspecified) -9.76%, NCc1ccc(S(N)(=O)=O)cc1 -18%, COc1ccccc1Cn1c(C2CC(=O)N(c3ccccc3OC)C2)nc2ccccc21 (stereo unspecified) -20.6%, Cc1ccnc(NC(c2cccc(O)c2)c2ccc3ccc(C)nc3c2O)c1 (stereo unspecified) -8.7%, Cc1ccc(CNC(=O)c2cc3sc(Cl)cc3n2C)cc1 -8.28%, Cc1cccc(CS(=O)(=O)Cc2ccc(C(=O)NCc3ccc(F)cc3)o2)c1 -8.6%, CC(C)CCNC(=O)CCCn1c(=O)c2cccn2c2ccccc21 -13.4%, COc1ccccc1N1CCN(S(=O)(=O)c2cc(C(=O)Nc3ccc(Oc4ccccc4)cc3)ccc2F)CC1 -17.1%, COc1cccc(NC(=O)c2cnc(SCC(=O)N3CCCc4ccccc43)n(C)c2=O)c1 -14.5%, CCOC(=O)c1c(C)oc2ccc(N(C(=O)c3ccncc3)S(=O)(=O)c3ccc(F)cc3C)cc12 -5.66%, Cc1ccc2nc(-c3ccc(Cl)c(NC(=O)COc4ccc([N+](=O)[O-])cc4)c3)oc2c1 -9.24%, O=C(Cn1c(=O)n(-c2ccccc2)c(=O)c2c3c(sc21)CCC3)c1ccc(Br)cc1 -19.4%, Cc1noc(-c2ccc(-c3noc(-c4ccc(Cl)cc4)n3)cc2)n1 -19.4%, CCN(C(=O)c1cc2c(=O)oc3ccccc3c2s1)c1ccccc1F -12.7%, O=C(CN1C(=O)CCc2cc(Br)ccc21)Nc1ccc(OC(F)(F)F)cc1 -11.9%, CCOC(=O)c1ccc(Nc2c(-c3ccc(N(C)C)cc3)nc3nc[nH]n23)cc1 -12.4%, COc1ccccc1NC(=O)CSc1nnc2c(n1)[nH]c1ccccc12 -12.9%, Cc1ccc(C)c(CN2CCCN(Cc3ccccc3C)S2(=O)=O)c1 3.38%, Cc1cc(C)cc(NC(=O)CN2C(=O)c3ccccc3Sc3ccc(C(=O)N4CCCC4)cc32)c1 -7.72%, COc1ccc(Cn2c(=O)n(-c3ccc(C)cc3)c(=O)c3c2c2cc(C)ccc2n3C)cc1 -1.84%, COc1cccc(CNC(=O)c2nn(C)c3c2CSc2ccccc2-3)c1 -4.16%, COc1ccc(NC(=O)c2cnc3cc(C)ccn3c2=O)c(OC)c1 0.47%, CCc1ccc(CNC(=O)c2cc3c(=O)n(CC)c4ccccc4c3s2)cc1 -8.75%, Cc1cccc(Nc2c(-c3cccs3)nc3nc(C)cc(C)n23)c1 -17.8%, O=C(NC(=O)c1ccccc1)Nc1ccc(-n2nc(C(F)(F)F)cc2C(F)(F)F)cc1 -7.23%, COc1ccccc1CNC(=O)CCc1c(C)nc2c(c(C)nn2-c2ccc(C)c(C)c2)c1C -8.75%, CC1CCC(NC(=O)c2ccc3c(c2)N(Cc2ccccc2)C(=O)c2ccccc2S3(=O)=O)CC1 (stereo unspecified) 5.34%, CCCCn1c(=N)c(S(=O)(=O)c2ccc(Cl)cc2)cc2c(=O)n3cccc(C)c3nc21 -15.1%
